# Source: the supplement of paper PMC9446081
# The campaign covered roughly 39,000 compounds. About 220 (0.56%) showed activity. This is one part of the list.
# Tested on: Escherichia coli K-12 BW25113
# Assay: relative growth (OD600 normalised to plate interquartile mean) (fraction); higher = less growth inhibition, active = 0.2 or less
# Conditions: 50 µM; LB; incubation time: overnight (16-24 h)
# 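Also: static incubation at 37 °C against the wild-type strain, values averaged over two biological replicates.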
row,Compound,relative growth
1,Cc1ccc(S(=O)(=O)Nc2ccc3c(c2)CC(=O)N([C@@H](C)CO)C[C@@H](C)[C@H](CN(C)S(=O)(=O)c2ccccc2)O3)cc1,inactive: 0.982
2,O=C1N[C@@H](Cc2c[nH]c3ccccc23)COC(=O)[C@@H](Cc2ccc(F)cc2)CCC=CC[C@H]1CC(=O)N(CCO)Cc1ccccc1,inactive: 0.993
3,C[C@H]1CN([C@@H](C)CO)C(=O)c2cc(NC(=O)Nc3ccc(C(F)(F)F)cc3)ccc2O[C@H]1CN(C)C(=O)NC1CCCCC1,inactive: 1
4,COCC#Cc1ccc([C@H]2[C@H]3CN(C(=O)C4CCOCC4)CC(=O)N3[C@H]2CO)cc1,inactive: 1.05
5,CN(C)[C@@H]1C(=O)[C@@H](C(N)=O)C(=O)[C@@]2(O)C(=O)[C@@H]3C(=O)c4c(O)c(NC(=O)CN5CCCC5)cc(F)c4C[C@H]3C[C@@H]12,active: 0.0357
6,C=CCN1C(=O)[C@@]2(O[C@@H](CCO)[C@H]([Si](C)(C)c3ccc(OC)cc3)[C@H]2C)c2cc(NC(=O)[C@H](C)O)ccc21,inactive: 1.03
7,COc1ccc2c3c(n(c2c1)C)[C@@H](CO)N(C[C@]13CN(Cc2cccnc2)C1)S(=O)(=O)c1ccc(cc1)C,inactive: 1.01
8,NCCCC(O)(P(=O)(O)O)P(=O)(O)O.O.O.O.[Na+],inactive: 1.11
9,O=C(C[C@H]1CC[C@H]2[C@@H](COC[C@H](O)CN2S(=O)(=O)c2ccc(Cl)cc2)O1)NCCN1CCCCC1,inactive: 1.04
10,COc1ccc(S(=O)(=O)N(C)C[C@@H]2OCCCC[C@@H](C)Oc3ccc(NC(=O)Nc4ccc(C(F)(F)F)cc4)cc3C(=O)N([C@@H](C)CO)C[C@H]2C)cc1,inactive: 0.999
11,C[C@H](CO)N1C[C@H](C)[C@H](CN(C)Cc2ccccc2)OCCCC[C@H](C)Oc2ccc(NS(=O)(=O)c3ccccc3)cc2C1=O,inactive: 0.997
12,C[C@H](CO)N1C[C@H](C)[C@@H](CN(C)S(=O)(=O)c2ccc(Cl)cc2)Oc2ccc(NC(=O)CCCN(C)C)cc2CC1=O,inactive: 0.991
13,CCCCOc1ccc(OCCCN2CCOCC2)cc1.Cl,inactive: 1.06
14,COc1ccc(S(=O)(=O)N(C)C[C@H]2OCCCC[C@@H](C)Oc3ccc(NC(=O)Nc4ccccc4)cc3C(=O)N([C@H](C)CO)C[C@@H]2C)cc1,inactive: 1.01
15,C[n+]1ccccc1/C=N/O,inactive: 0.978
16,COCC(=O)N(C)C[C@@H]1Oc2cc(C#CCC3CCCC3)ccc2S(=O)(=O)N([C@@H](C)CO)C[C@H]1C,inactive: 1.01
17,C[C@@H]1CN([C@H](C)CO)C(=O)Cc2cc(NC(=O)Nc3ccccc3)ccc2O[C@H]1CN(C)S(C)(=O)=O,inactive: 1.01
